# Experimental data reported in the supplement of paper PMC5499739.
# In all, about 16,000 sequences were measured (“Z-score”: median about -0.37, highest 2% from about 3.1 on). The list shows a part of the results.
# Tested on: RBM10 RRM1-ZnF-RRM2 (GST-tagged construct)
# Experiment: RNAcompete 7-mer binding Z-score; higher = stronger binding preference
# Method: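 RNAcompete: 20 pmol GST-tagged RBM10 RNA-binding constructs were incubated with a designed RNA pool of about 241,000 sequences up to 41 nt (1.5 nmol) on glutathione beads for 30 min at 4 °C and washed. Bound RNAs were identified by microarray hybridisation. Each RNA 7-mer is scored by a one-sided Z-score of its enrichment, computed over probes that contain the 7-mer within longer pool sequences.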
row,Sequence,RNAcompete 7-mer binding Z-score
1,CCACUCA,-0.661
2,CACAUGA,-0.369
3,AGUUAUG,0.119
4,ACAUAAC,-0.457
5,AAGAUAG,0.789
6,ACGUGAC,-0.114
7,UCAGACC,-0.639
8,CGCCCAC,-0.755
9,AGUAGAU,0.399
10,CUUGACG,-0.683
11,GUUGAUU,-0.282
12,UCCAAUU,-0.755
13,CUGCGUU,-0.61
14,GUCUUAC,-0.679
15,CCCAUCC,-0.624
16,CGAAAGU,-0.271
17,CGGUCAC,-0.209
18,CGCAGCC,-0.683
19,AUAUGGU,2.06
20,UCAAAAC,-0.358
21,CUUGGCU,-0.69
22,UUCUCCG,-0.708
23,CAAACUA,-0.573
24,CCUCGCU,-0.828

row,Sequence,RNAcompete 7-mer binding Z-score
1,CUCCGUA,-0.679
2,GCGAUCA,0.0568
3,UGGUAAG,1.73
4,UGCCCAG,-0.708
5,GUCGAUG,0.162
6,AGGAGGA,2.22
7,AGCCGUA,-0.471
8,CGAGGAU,1.1
9,UAUGAAU,-0.0853
10,CGAUGAC,-0.209
11,UAGAGGC,1.05
12,AUUCUAU,-0.741
13,CCUCGAG,-0.65
14,CGACUCG,-0.617
15,ACAGGAG,2.7
16,CCGAACA,-0.541
17,CUUCGCC,-0.923
18,UCUCGUA,-0.701
19,CGUACCU,-0.77
20,CCACACC,-0.497
21,AGGGUCA,1.51
22,GCGUGCG,0.782
23,GUGAACC,-0.00877
24,AUGCUGG,0.585

row,Sequence,RNAcompete 7-mer binding Z-score
1,AGACCGU,-0.996
2,CUGGUUG,0.17
3,UACCAUA,-0.391
4,AAUUACC,-0.748
5,CGGUUAU,0.0823
6,GUCCAGA,-0.275
7,CGUGGCG,1.36
8,AGUUAUU,-0.588
9,CUUAUAU,-0.854
10,CCUGGGC,0.29
11,UGAUCGC,-0.708
12,ACCGCGG,0.548
13,AUUAAGA,-0.103
14,AGGGCGU,1.3
15,UAAGGAC,1.51
16,AGCUGCA,-0.351
17,GACUAUA,-0.417
18,UUAAGCA,-0.449
19,AUGCCAC,-0.723
20,ACUUUAG,-0.69
21,GAUUAGU,0.439
22,UCCAGAA,-0.46
23,GUAGGAU,2.39
24,UUAUCAC,-0.704

row,Sequence,RNAcompete 7-mer binding Z-score
1,UGUACAU,-0.293
2,UUCCGGA,-0.479
3,GUUUAUU,-0.537
4,ACAAAGG,2.29
5,GCUCAAA,-0.442
6,UAACUCA,-0.526
7,CCGAUUU,-0.981
8,CACAGGU,0.676
9,GGGGCCG,1.24
10,CAGCUCC,-0.857
11,UGCUCAU,-0.821
12,ACCCUAU,-0.854
13,GACACGA,-0.0962
14,GAUAUCG,0.0204
15,CUAGCAC,-0.694
16,CAUGGUC,0.0969
17,AGUGUCG,0.195
18,UGCGGAA,1.13
19,AAGGGCG,3.12
20,GAUCGGU,0.548
21,CAGUCAG,0.0131
22,UUAUUCU,-0.854
23,AUCCAAU,-0.508
24,AAUUAAC,-0.439

row,Sequence,RNAcompete 7-mer binding Z-score
1,CAGUCCA,-0.49
2,CGCUGAA,-0.548
3,ACCUACU,-0.843
4,GUCGAGA,0.104
5,UGAAGAC,-0.114
6,UCUAGCU,-0.795
7,AUUUGUG,-0.158
8,CUCGGAA,-0.38
9,AUGAAUG,0.68
10,GCACGAA,-0.184
11,CUAAAAU,-0.697
12,UGCGUGC,-0.373
13,UAUCGAC,-0.766
14,GCCUAUU,-0.901
15,AACCUCG,-0.766
16,CUUGAUC,-0.854
17,UCUCACG,-0.613
18,GGGUAAG,3.97
19,CCGAAAG,-0.526
20,CUCGGAG,-0.122
21,CGUCAAG,-0.249
22,UGGAGCA,2.21
23,CACACAA,-0.49
24,GCACCGU,-0.326

row,Sequence,RNAcompete 7-mer binding Z-score
1,CGGGUCC,0.723
2,UACUUGC,-0.734
3,AAAUACG,-0.0561
4,AUAUCUG,-0.573
5,CUAUGAC,-0.679
6,GCCAAUA,-0.468
7,AUGCCUA,-0.785
8,AGUGGGA,4.3
9,ACAGGUC,0.283
10,UCGCACU,-0.69
11,CGGGGGC,2.22
12,UCAAUCC,-0.639
13,CUAAGUG,-0.198
14,GAACAGG,3.18
15,GUUCAGU,-0.0488
16,GCACGUU,-0.337
17,UCAGAUA,-0.209
18,AAUAGCG,0.202
19,AAUACUC,-0.646
20,CGCUAAU,-0.628
21,CAAAUAG,-0.144
22,GCGGGGC,2.5
23,AUAGAUA,0.177
24,CACUUAC,-0.712

row,Sequence,RNAcompete 7-mer binding Z-score
1,CGGAUUA,0.37
2,AUCCCCA,-0.653
3,GUUACGC,-0.154
4,GAUAGAA,0.665
5,AUGUAAU,-0.366
6,CCGAGUA,-0.541
7,GUCUAUG,-0.213
8,UAUGGAA,1.22
9,UCGAUUC,-0.759
10,CUCCUGG,-0.449
11,GCCGACA,-0.355
12,UGCUCCG,-0.683
13,AUCGAUG,0.177
14,CGUUAGU,-0.402
15,GCGGGAA,2.5
16,UGGAAGG,3.68
17,CUAGAGU,-0.446
18,CAACUCU,-0.916
19,GACGAUC,-0.428
20,CCAUUCA,-0.777
21,CCCCUAC,-0.748
22,AGCAGCC,-0.526
23,CGUAGAG,0.636
24,UUGCCUC,-0.89

row,Sequence,RNAcompete 7-mer binding Z-score
1,GUCUGAA,-0.562
2,CACUUUA,-0.814
3,UCGCGCG,-0.391
4,AGUCACG,-0.235
5,GCCGAGG,0.505
6,CCCCCUU,-0.595
7,CGUAACC,-0.508
8,AUAAAUG,0.0641
9,UCACUCG,-0.548
10,UGAGCGU,0.323
11,CCACGAA,-0.544
12,CAGCAGU,-0.107
13,AGAAUCU,-0.77
14,CACGCCU,-0.683
15,AGCUUUC,-0.839
16,UGGUACU,0.195
17,UGUGGCA,0.632
18,AGGCUGA,0.297
19,GGGUCCC,0.625
20,UUAUCUC,-0.741
21,GCGUUGU,-0.162
22,UUAAAAA,-0.402
23,CACGGAG,0.712
24,UUACCGC,-0.701

row,Sequence,RNAcompete 7-mer binding Z-score
1,UCCCAGU,-0.566
2,GCCUGUA,-0.763
3,GCCGGAG,0.476
4,CAUUGCU,-0.683
5,UGGAACA,1.38
6,CAUAAAC,-0.511
7,UUGGCCG,-0.129
8,GACGCAG,0.137
9,GCUCUAA,-0.577
10,CAGACGG,0.935
11,AGUCAAU,-0.136
12,AUGCCGG,-0.136
13,CAUCUAU,-0.825
14,AGGGCGG,2.23
15,ACGGAUC,0.213
16,GUCCUAU,-0.599
17,GAUAAAG,1.26
18,UGCCCGC,-0.449
19,GUGGUAU,1.08
20,CCGAGAU,-0.347
21,UUCUUUA,-0.803
22,CUUUGUC,-0.821
23,UCCACAC,-0.621
24,GGUCUUG,-0.3

row,Sequence,RNAcompete 7-mer binding Z-score
1,CAAUUUG,-0.795
2,AUACUCU,-0.817
3,CACCACG,-0.154
4,AGGCCCU,-0.919
5,CGUUAUG,-0.347
6,UAAACGA,-0.231
7,UCUUGUA,-0.697
8,UCCGUAU,-0.704
9,CCUCAAU,-0.912
10,UGCAAUU,-0.355
11,UGGAGGC,2.16
12,ACAUUCC,-0.763
13,CUCCUCC,-0.606
14,AUUUCGA,-0.624
15,GUCGCCU,-0.562
16,AUUAUCG,-0.402
17,CCACGGG,1.23
18,GUCGUCU,-0.417
